Data on 63 compounds can be found in PubChem BioAssay AID1159614 (National Center for Advancing Translational Sciences (NCATS), 2016).

Among all 45,000 compounds or so, about 65 (0.1%) were called active. Calls follow the shape of the dose curve; as a rule, active = well fitted activation curve with a large enough effect; inconclusive = small, poorly fitted or top-dose-only effect; inactive = no such curve, though single readings can be large or run the other way. This is one part of the list.

For the experiment, the target named is Galactocerebrosidase (Homo sapiens) (UniProt P54803). As to the kind of experiment: A Novel Cell-Based Assay to Identify Small Molecules for B -Galactocerebrosidase. Also: 0% is about no effect; nearly all actives have a fitted effect of over 65% in size. The settings on record: 145M-Twi-hGALC-G270D cells (Twitcher mouse brain line with human GALC G270D), HMU-beta-Gal fluorescence, 48 h; series mostly up to 57.5 µM; activation: at the top concentration. In short, it runs like this: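 Mutant human GALC (G270D), stably expressed in a Twitcher mouse brain cell line lacking endogenous GALC, is measured in live-treated cells via 6-hexadecanoylamino-4-methylumbelliferyl-β-galactoside hydrolysis (0.1 mM final, pH 5.2) with fluorescent detection.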
Chain of UniProt P54803 (P54803 whole entry, looked up): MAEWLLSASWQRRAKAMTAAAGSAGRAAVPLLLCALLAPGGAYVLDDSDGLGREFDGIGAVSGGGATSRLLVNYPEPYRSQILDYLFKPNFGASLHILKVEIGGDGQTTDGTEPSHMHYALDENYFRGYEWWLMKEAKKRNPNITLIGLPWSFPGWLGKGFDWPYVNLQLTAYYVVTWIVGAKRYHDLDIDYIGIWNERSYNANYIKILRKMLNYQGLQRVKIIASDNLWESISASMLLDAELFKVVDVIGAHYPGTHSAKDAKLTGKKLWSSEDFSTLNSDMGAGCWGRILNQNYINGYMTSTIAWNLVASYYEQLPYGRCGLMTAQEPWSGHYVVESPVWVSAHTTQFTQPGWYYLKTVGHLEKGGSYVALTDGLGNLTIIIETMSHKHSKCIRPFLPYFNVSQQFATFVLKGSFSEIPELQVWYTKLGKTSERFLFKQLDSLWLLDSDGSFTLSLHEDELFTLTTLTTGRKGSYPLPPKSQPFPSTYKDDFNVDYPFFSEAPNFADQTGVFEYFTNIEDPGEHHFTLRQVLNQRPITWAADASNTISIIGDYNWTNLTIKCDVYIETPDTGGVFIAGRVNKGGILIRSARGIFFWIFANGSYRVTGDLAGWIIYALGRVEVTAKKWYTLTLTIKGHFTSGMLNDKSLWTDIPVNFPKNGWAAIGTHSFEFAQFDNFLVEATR
For the compound `COc1ccc(C2=NN(S(C)(=O)=O)C(c3cn(-c4ccccc4)nc3-c3cccs3)C2)cc1` (stereo not drawn), the “activation” value was inactive: 7.25%.

`Cc1ccc(S(=O)(=O)N(CC(O)Cn2c3ccccc3c3ccccc32)c2cccc(C(=O)N(C)C)c2)cc1` (stereo not drawn): the “activation” value is inactive: -47%.

In the case of `C#CCN1C(=O)C(O)(CC(=O)c2ccc(OC)c(OC)c2)c2cc(Br)ccc21` (stereo not drawn), the “activation” value is inactive: -13.9%.

In the case of `Cc1ccc(-c2nc3ccccn3c2Nc2ccc3c(c2)OCCO3)s1`, the “activation” value is inactive: -3.43%.

For the compound `CN(C)CCOC(c1ccc(Cl)cc1)c1ccccn1` (stereo not drawn), the “activation” value was inactive: -3.99%.

Take `Cc1cc(C)cc(NC(=O)Cn2c(=O)n(C(C)C)c(=O)c3oc4ccccc4c32)c1`: the “activation” value is inactive: -9.7%.

Regarding `O=C(Cc1ccc(NC(=O)N2CCSc3ncccc32)cc1)NCc1ccccc1`, the “activation” value is inactive: -0.766%.

With `Cc1ccc(Oc2nc3c(c(=O)n(Cc4ccccc4)c(=O)n3C)n2C)cc1C`, the “activation” value was inactive: -24.3%.

`CCCn1c(=N)c(C(=O)NCc2cccnc2)cc2c(=O)n3cccc(C)c3nc21`: the “activation” value was inactive: -8.37%.

For the compound `COc1cccc(-c2ccnc3c(-c4ccc(F)cc4)c(C)nn23)c1`, the “activation” value was inactive: -2.93%.

In the case of `Cc1oc2ncnc(N3CCOCC3)c2c1C(=O)N1CCN(c2cccc(C(F)(F)F)c2)CC1`, the “activation” value was inactive: 2.96%.

For `CCN(C(=O)C1CCC(CNS(=O)(=O)c2cccc3nsnc23)CC1)c1cccc(C)c1` (stereo not drawn), the “activation” value is inactive: -16.5%.

Consider `CC1(C)CC(=O)c2cc(C(=O)Nc3ccc(Br)cc3)c(=O)[nH]c2C1`, for which the “activation” value is inactive: -11.2%.

As for `CCN(C(=O)C1CCC(CNS(=O)(=O)c2cccc3nsnc23)CC1)c1ccccc1` (stereo not drawn), the “activation” value is inactive: -8.46%.

As to `COc1ccc(NC(=O)C2=C(C)Nc3ncnn3C2c2ccc(C)o2)cc1` (stereo not drawn), the “activation” value was inactive: -18.5%.

In the case of `Cc1ccc(NC(=O)c2ccc(=O)n(CC(=O)Nc3c(C)cc(C)cc3C)n2)cc1`, the “activation” value is inactive: -9.21%.

Regarding `Cc1ccc(COc2ccc3oc(-c4ccccc4)c(C(=O)O)c3c2)cc1`, the “activation” value is inactive: -14%.

`COc1ccc(OCC(=O)N2CCN(C(=O)c3cc(OC)c(OC)c(OC)c3)CC2)cc1`: the “activation” value is inactive: -18%.

Take `COc1ccc(/C=C/C(=O)N2CCC(c3nc4ccccc4o3)CC2)cc1OC`: the “activation” value was inactive: -8.91%.

With `CCOc1ccccc1NC(=O)N(C)CCc1c(C)nn(CC)c1C`, the “activation” value was inactive: -14.6%.

Consider `CCOc1ccc(C2N3CC4(C(C)C)CN2CC(C(C)C)(C3)C4=O)cc1OC` (stereo not drawn), for which the “activation” value was inactive: -15.7%.

As for `O=C(COc1ccccc1)NCC(c1cccs1)S(=O)(=O)c1ccc(Cl)cc1` (stereo not drawn), the “activation” value is inactive: -6.87%.

Consider `CCN(C(=O)Cn1c(SCC(=O)Nc2ccc(OC)cc2)nc2ccccc21)c1cccc(C)c1`, for which the “activation” value was inactive: -10.1%.

Take `CC(C)(C)c1ccc(C(=O)NNc2ncnc3c2cnn3-c2ccccc2)cc1`: the “activation” value is inactive: -19%.

Consider `O=C1CCc2ccc(OCCCCN3CCN(c4cccc(Cl)c4Cl)CC3)cc2N1`, for which the “activation” value is inactive: -13%.

With `Cc1cc(C)n2c(Nc3ccccc3C)c(-c3cccs3)nc2n1`, the “activation” value was inactive: -12.8%.

As for `COc1cccc(C(=O)Nc2ccc(-n3nncc3-c3ccc(Br)cc3)cc2)c1OC`, the “activation” value was inactive: -0.447%.

`COc1ccc(-n2nc(C(=O)Nc3ccc(Br)cc3C)c3c4ccccc4n(C)c3c2=O)cc1`: the “activation” value is inactive: -7.95%.

As to `COc1ccc(C(=O)N2CC(=O)Nc3ccc(C)cc3C2c2ccccc2)cc1OC` (stereo not drawn), the “activation” value is inactive: -9.07%.

Turning to `CCOc1ccc(C2C=C(c3cccc(OC)c3)Nc3nnnn32)cc1` (stereo not drawn), the “activation” value is inactive: -1.99%.

For `COc1ccc2nc3oc(C(=O)Nc4cccc(C(F)(F)F)c4)cc3cc2c1`, the “activation” value was inactive: 11.8%.

As for `Cc1cc(C)cc(NS(=O)(=O)c2ccc3c(c2)OCC(C(=O)N2CCCC2)O3)c1` (stereo not drawn), the “activation” value is inactive: -12.2%.

As for `CCOc1ccc(NC(=O)CN(Cc2ccccc2)S(=O)(=O)c2ccc(Cl)cc2)cc1`, the “activation” value was inactive: 2.53%.

On to `Cc1ccccc1CN1CCc2nc(N3CCN(c4ccccn4)CC3)ncc2C1`, for which the “activation” value is inactive: -11.5%.

Consider `Cc1ccc2nc(-c3ccc(C)c(NC(=O)Cc4ccccc4)c3)oc2c1`, for which the “activation” value was inactive: -2.68%.

`Cc1cccc(Nc2nc(C)nc(N)c2S(=O)(=O)c2ccccc2)c1`: the “activation” value is inactive: 5.7%.

For the compound `Cc1ccc(CNC(=O)CSc2c3c(nc4ccc(Cl)cc24)CCCC3)cc1`, the “activation” value was inactive: 6.68%.

For the compound `Cc1c(C2=CCN(S(=O)(=O)c3ccc(Br)cc3)CC2)c2ccccc2n1CC(=O)N1CCCC1`, the “activation” value was inactive: -13.3%.

As to `CCOc1ccc(C2C(C(=O)Nc3ccc(OC)cc3)=C(C)Nc3nc(SCc4ccc(Cl)cc4)nn32)cc1` (stereo not drawn), the “activation” value was inactive: -6.01%.

`COc1ccc(N2CCN(CCCNC(=O)c3ccc4nc(CCc5ccccc5)oc4c3)CC2)cc1`: the “activation” value was inactive: -13.7%.

For the compound `COc1ccc(NC(=O)CSc2c3c(nc4ccc(Cl)cc24)CCCC3)cc1Cl`, the “activation” value is inactive: -6.42%.

Regarding `Cc1ccccc1NC(=O)CS(=O)(=O)c1cccc2nsnc12`, the “activation” value is inactive: -4.48%.

Consider `Cc1c(Cl)cccc1NC(=O)c1ccc(NC(=O)N2CCSc3ncccc32)cc1`, for which the “activation” value is inactive: -6.61%.

On to `CCc1c(C)sc2c1CCN(C(=O)Nc1ccccc1C(=O)OC)C2c1ccc(F)cc1` (stereo not drawn), for which the “activation” value was inactive: -13%.

On to `O=C(Nc1ccc(Br)cc1)N1CCC(CN2CCCC2)CC1`, for which the “activation” value is inactive: -0.816%.

As for `CCNC(=O)c1c(NC(=O)COc2ccc(F)cc2)sc2c1CCCC2`, the “activation” value is inactive: -8.17%.

On to `CCCc1ccc(OCC(=O)Nc2scc(-c3cccs3)c2C(=O)OC)cc1`, for which the “activation” value is inactive: -7.94%.

With `COc1ccc2c(c1)CC(C(=O)NCCN1CCN(c3cccc(Cl)c3)CC1)CO2` (stereo not drawn), the “activation” value was inactive: -8.24%.

Turning to `O=C(c1ccc2c(c1)N(Cc1ccc(F)cc1)CCS2)N1CCN(c2ccccc2)CC1`, the “activation” value was inactive: -7.56%.

Take `Cc1nc(Oc2ccccc2C)c2oc3ccccc3c2n1`: the “activation” value was inactive: -10.2%.

On to `Cc1ccc(CNC(=O)c2sc3nc4n(c(=O)c3c2C)CCCC4)cc1`, for which the “activation” value was inactive: -6.97%.

As to `NC(=O)NC1NC(=O)NC1=O` (stereo not drawn), the “activation” value is inactive: -13.9%.

In the case of `CCCCn1c(C2CC(=O)N(c3ccc(OCC)cc3)C2)nc2ccccc21` (stereo not drawn), the “activation” value is inactive: -15%.

On to `O=C(OCC1CCCO1)c1ccc2c(c1)N(Cc1c(F)cccc1Cl)C(=O)c1ccccc1S2(=O)=O` (stereo not drawn), for which the “activation” value was inactive: -1.91%.

As to `O=C(O)/C=C\C(=O)O`, the “activation” value was inactive: -16.3%.

For the compound `CCc1nnc(NC(=O)c2nc(SCc3ccc(F)cc3)ncc2Cl)s1`, the “activation” value is inactive: -7.68%.

In the case of `CCOc1ccc(OCC)c(NS(=O)(=O)c2ccc3c(c2)CCCN3C(C)=O)c1`, the “activation” value was inactive: -10.3%.

For `Cc1ccc(Cl)cc1N1CCN(C(=O)c2cnc3c(-c4ccc(F)cc4)c(C)nn3c2C)CC1`, the “activation” value was inactive: -9.19%.

As for `O=C(Nc1ccccc1C(F)(F)F)C1CCN(c2nnc(-n3cccc3)s2)CC1`, the “activation” value is inactive: -14.9%.

For `Cc1cccc(S(=O)(=O)c2cn(Cc3ccc(F)cc3)c3cc(N4CCOCC4)c(F)cc3c2=O)c1`, the “activation” value was inactive: 7.85%.

Turning to `CCC(C(=O)NC1CCCCC1)n1nc(C)c2sc3ccccc3c2c1=O` (stereo not drawn), the “activation” value was inactive: 1.49%.

As to `COc1ccc(S(=O)(=O)N2CCC(c3nnnn3-c3ccccc3)CC2)cc1OC`, the “activation” value is inactive: -49.8%.

With `CCN(CC)S(=O)(=O)c1ccc2c(c1)c(=O)c(C(=O)N1CCN(c3cc(C)ccc3C)CC1)cn2C`, the “activation” value is inactive: -19.7%.
